From the RNAGym collection of RNA variant scans (doi:10.7554/elife.90254)
Read counts are not given, so values of variants with three or more changes are uncertain.

B1: LINE1-mini (parent)
chain: GGCAGAGCUCAACACAGCGUGGCAAAGUGGCUGUGGCUAGACUGCC

Variants of: B1
Assay: self-cleavage, relative activity (ratio to wild type); higher = more cleavage; in vitro, sequencing; the parent is a self-cleaving ribozyme

For GGCAGAGCUCAACACUGCAUGGCAAAGUGGCUGUGGCUAGGGUGCC [A16U G19A A41G C42G], which self-cleavage is on record?
The self-cleavage was 0.2.

With GGCAGAACUGAACAUAGCGUGGCCAAGUGGCUGUGGCUAGACUGCC [G7A C10G C15U A24C] as the variant, how does the self-cleavage read?
The self-cleavage was 0.03.

Which self-cleavage does the source give for GACAGAGCUCAAGACAGCGUGACAAAAUGGCUGUGGCUAGACUGCC [G2A C13G G22A G27A] here?
Its self-cleavage is 1.23.

With GGCAGAGCUCAACACAGCGUGCCAAACUGGCUGUCGCUAGACGGCC [G22C G27C G35C U43G] as the variant, how does the self-cleavage read?
The self-cleavage was 0.

With GGCAGAGGUCAACACAGCGUGGCAAACUGGCUUUGGCUAGACUGCC [C8G G27C G33U] as the variant, how does the self-cleavage read?
Its self-cleavage is 0.04.

With GGCAGAGCUAAACACAGCGUGGCAAAGUGGCUGUGGCUAGCCUCAG [C10A A41C G44C C45A C46G] as the variant, how does the self-cleavage read?
The self-cleavage was 0.04.

Which self-cleavage does the source give for GGCAUAGCUCAACACAGCGUAGUAAAGUGGCUGUGGCUCGACUGCC [G5U G21A C23U A39C] here?
The self-cleavage was 0.08.

Which self-cleavage does the source give for GGCAGAGCUCAACACAGCGUGGCAACUUGGUUGUCGCUAGACUGCC [A26C G27U C31U G35C] here?
Its self-cleavage is 0.03.

Which self-cleavage does the source give for GGGCGAGCUCAACACAGCAUGGCGAAGUGGCUGUGGCUAGACUGCC [C3G A4C G19A A24G] here?
The self-cleavage was 0.02.

With GGCAGAGUUCAACACAGCGUGGCAAAGUGGCCGUGGCUAGACUGCU [C8U U32C C46U] as the variant, how does the self-cleavage read?
The self-cleavage was 0.07.

With GGCAGAGCUCAACACAACGUUGCAAAGUGGUUGUGGCUAAACUGGC [G17A G21U C31U G40A C45G] as the variant, how does the self-cleavage read?
The self-cleavage was 0.05.

With GGCAGAGCUCAACAAAGCGUAGCAAAGUGGCUGUGGCUACACUGCC [C15A G21A G40C] as the variant, how does the self-cleavage read?
Its self-cleavage is 0.02.

Which self-cleavage does the source give for GGCAAAGCUCAACACAGCGUGGCAAAGUUGCUGUGGCUCGACUGCC [G5A G29U A39C] here?
The self-cleavage was 0.06.

With GGCUGAGCUGAACACAGCGUGGCAAAGUCGCUGUGGCUAGACUGCC [A4U C10G G29C] as the variant, how does the self-cleavage read?
Its self-cleavage is 0.01.

Which self-cleavage does the source give for GGCAGAGCUAAACACAGCGUGGCAAAUUGGCUGGGGCUAGACUGCC [C10A G27U U34G] here?
The self-cleavage was 0.06.

Which self-cleavage does the source give for GGAAGCGCUCAACACAGCGUGGCAAAGCGGCAGUGGCUAGACUGUC [C3A A6C U28C U32A C45U] here?
Its self-cleavage is 0.06.

Which self-cleavage does the source give for GGAAGAGCUCAACACAGCGCUGCAAAGUUGCUGUGGCUAGACUGUC [C3A U20C G21U G29U C45U] here?
The self-cleavage was 0.26.

With GGCAGCGCUCAGCACAGCGUGGCAAAGUGGCUGUGGCUAGACUGCG [A6C A12G C46G] as the variant, how does the self-cleavage read?
Its self-cleavage is 0.01.

With GGCAGAGCUCAACACAGCGUGGCAAAGAGCCUGUAGCUAGACUGCC [U28A G30C G35A] as the variant, how does the self-cleavage read?
The self-cleavage was 0.09.

For GUCAGAGCUCAACACAGCGUGGCAAAGUAGCUAUGUCUAGGCUGCC [G2U G29A G33A G36U A41G], which self-cleavage is on record?
Its self-cleavage is 0.01.

Which self-cleavage does the source give for GGCAGAGCUCAACACAGCGUGGGAAAGUGGCUGUUGCUAGUCUGCC [C23G G35U A41U] here?
The self-cleavage was 0.14.

Which self-cleavage does the source give for AGCAGAGCUCACCACAGCUUGGCAAAGUGGCUGUGGCCAGAGUGCC [G1A A12C G19U U38C C42G] here?
The self-cleavage was 0.03.

For GGCAGAGCUCAACACAGCGGGACGAAGUGGCUGUCGUUAGACUGCC [U20G G22A A24G G35C C37U], which self-cleavage is on record?
The self-cleavage was 0.05.

Which self-cleavage does the source give for GACAGAUCUCAACACAGCGUGGGAAAGUGGCUGUGGCUAGACUGCA [G2A G7U C23G C46A] here?
Its self-cleavage is 0.07.

Which self-cleavage does the source give for GGCAGCGCUCAAGACAGCGUGGCAAAGUGGCAGUGGCUAGACUGCC [A6C C13G U32A] here?
The self-cleavage was 0.28.

For GGCAGCGCUCAACACAGCGUAUCAAAGUGGCUGUGGCUAGACUGCC [A6C G21A G22U], which self-cleavage is on record?
Its self-cleavage is 0.06.

With GUCAGAGCUCAACACAGCGUGGCAAAGUGGCUAUGGCGAGACUGCC [G2U G33A U38G] as the variant, how does the self-cleavage read?
Its self-cleavage is 0.

With GGCAGAGAUCAGCAGAGCGUGGCAAAGUGGCCUUGGCUAGACUGCC [C8A A12G C15G U32C G33U] as the variant, how does the self-cleavage read?
Its self-cleavage is 0.08.

With GGCAUAGCUCAACACAGCGUGGCAUAGUGGCUGUGGCUAGGCUGCC [G5U A25U A41G] as the variant, how does the self-cleavage read?
The self-cleavage was 0.06.

Which self-cleavage does the source give for CGCAGAGCUCAACACGGCGUGGCAAUGUGGCUGCGGCUAGACUGCC [G1C A16G A26U U34C] here?
The self-cleavage was 0.01.

For GGCAGAGCACAACACAGCGUGUCAAAGUGGCUGUGGCUAGACUGCA [U9A G22U C46A], which self-cleavage is on record?
Its self-cleavage is 0.2.

For GGCGGAGCUCAACACAGCGUGGCAAAGUGGCUGUAGCUAUACUGCA [A4G G35A G40U C46A], which self-cleavage is on record?
Its self-cleavage is 0.36.

For GGCAGAGGUCAAGACAACGUGGCAAAGUGGCAGUGGAUAGACUGCC [C8G C13G G17A U32A C37A], which self-cleavage is on record?
The self-cleavage was 0.03.

For GGCAGAGGUCAACAUAGCGUGGCACAGUGGCUUUUGCUAGACUGCC [C8G C15U A25C G33U G35U], which self-cleavage is on record?
The self-cleavage was 0.04.

Which self-cleavage does the source give for GGAAGAGCUCAACACCGCGUGGCAAGGUGGCUGUGGCUAGACUGCA [C3A A16C A26G C46A] here?
Its self-cleavage is 0.06.

With GGCUGAGCUCGACACAGCAUGGCAAAAUGGCUGUGGCAAGACUGCC [A4U A11G G19A G27A U38A] as the variant, how does the self-cleavage read?
Its self-cleavage is 0.01.

For GGCAGAUCUCUACAUAGCGUGGCAAAGUGGCUGUGGCUAGACUGCC [G7U A11U C15U], which self-cleavage is on record?
Its self-cleavage is 0.02.

With GGCAGAGCUCAACACUGCGUGGCAAUGUGGCUAUGGCUAGACUGCC [A16U A26U G33A] as the variant, how does the self-cleavage read?
Its self-cleavage is 0.05.

With GGCAGAGCUCAACACAGCGUGGAAAAGUGGAUGUGGCUACACUGCG [C23A C31A G40C C46G] as the variant, how does the self-cleavage read?
The self-cleavage was 0.43.

For GGCAGAGCUAAACACUGCAUGGCAAAAUGGCUGAGGCUAGACUGCC [C10A A16U G19A G27A U34A], which self-cleavage is on record?
Its self-cleavage is 0.02.

For GGCAGAGCUCGACACAGCGUGGCAGCGUCGCUGUGGCUAGACUGCC [A11G A25G A26C G29C], which self-cleavage is on record?
Its self-cleavage is 0.04.

For GGCAGAGCACCACACAGCGUGGCAAAGUGGCUGUGGCUAGAAUGCA [U9A A11C C42A C46A], which self-cleavage is on record?
Its self-cleavage is 0.

Which self-cleavage does the source give for GGCAGAGCUCAACACAGCCUGGCAAAGUGGCAGUGGCUCGACUGCC [G19C U32A A39C] here?
The self-cleavage was 0.04.

Which self-cleavage does the source give for GACAGAGCUCAAGACAGCGUGCUAAAGUGGCUGUAGCUAGACUGCC [G2A C13G G22C C23U G35A] here?
Its self-cleavage is 1.12.

For GGCAGAGCUAAACACUGCGUGGCAAAGUGUCUGUGGCUAGACUGCC [C10A A16U G30U], which self-cleavage is on record?
Its self-cleavage is 0.05.

Which self-cleavage does the source give for GGGAUAGCUCAACACAGCGUGGUAAAGUGGCUGUGGCAAGAUUGCC [C3G G5U C23U U38A C42U] here?
The self-cleavage was 0.09.

For GGCAUAGCUCAACUCAGCGUGGCAAAGUGGAUGUGGCUAGACUGCC [G5U A14U C31A], which self-cleavage is on record?
Its self-cleavage is 0.01.

For GGCAGAGCUAAACACAGCUUGGCAAAGGGGCUGUGGCUAGACUGCC [C10A G19U U28G], which self-cleavage is on record?
Its self-cleavage is 0.03.

Which self-cleavage does the source give for GGCAGAUAUCAACACAGCGUGGCAAAGUGGCUGUUGCUAAACUGCC [G7U C8A G35U G40A] here?
The self-cleavage was 0.02.

Which self-cleavage does the source give for GGCAUAGCUCAACACAAAAUGGCAAAGUUGCUGUGGCUAGACUGCC [G5U G17A C18A G19A G29U] here?
The self-cleavage was 0.05.

With GGCAGAGCUUAACACAGCCUGGCAAAGUUGCUGUGGCUAGACUGCC [C10U G19C G29U] as the variant, how does the self-cleavage read?
The self-cleavage was 0.12.

For UGCAGAGCUCAACACAGCGUGGAAAAGUGGCUGUGGCUAGAAUGAC [G1U C23A C42A C45A], which self-cleavage is on record?
The self-cleavage was 0.03.

For GGCAGAGCUCAACACAUCGUGGCACAGUGGCUGUGGCUAGCCUGCC [G17U A25C A41C], which self-cleavage is on record?
Its self-cleavage is 0.04.

For GGCAGAGCUCAACACUGCGUGGCAAGGUGGCUGUGGCUAGACUGAC [A16U A26G C45A], which self-cleavage is on record?
The self-cleavage was 0.37.

For GGCACAGCUCCACACAGCGUGGCACAGUGGCUGUGGCUAGACUGCC [G5C A11C A25C], which self-cleavage is on record?
The self-cleavage was 0.

With GGCACAGCUCAACACGGCUUGGCAAAUGGGCUGUGGCUAGACUGCC [G5C A16G G19U G27U U28G] as the variant, how does the self-cleavage read?
The self-cleavage was 0.
